Laboratory results reported in the supplement of paper PMC4604168 (melanoma cell lines).
Some of the results follow. Many values rest on one well or one pass, so single values are uncertain.

system: A2058; assay: cell count relative to DMSO control; melanoma cells; higher = more viable cells; conditions: library dose: standard library concentration; 72 h
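Note: cells treated in 1,536-well plates, then fixed and DAPI-stained, with nuclei counted from automated high-throughput microscope images.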

Row | SMILES | cell count [%]
1 | O=c1[nH]nc(Sc2ncc([N+](=O)[O-])s2)n1-c1ccc2c(c1)OCCO2 + C/C(O)=C(\C#N)C(=O)Nc1cc(Br)ccc1Br [LFM-A13] (first compound 1 µM, partner dose 10 µM) | 94.1
2 | Cn1cncc1[C@@](N)(c1ccc(Cl)cc1)c1ccc2c(c1)c(-c1cccc(Cl)c1)cc(=O)n2C [tipifarnib] + Cc1cc(SCc2sc(-c3ccc(C(F)(F)F)c(F)c3)nc2C)ccc1OCC(=O)O [GW0742] (first compound 0.05 µM, partner dose 10 µM) | 90.9
3 | Cc1cn(-c2cc(NC(=O)c3ccc(C)c(Nc4nccc(-c5cccnc5)n4)c3)cc(C(F)(F)F)c2)cn1 [nilotinib] + O=C(Oc1ccc([N+](=O)[O-])cc1)N1CCC(C(O)(c2ccc3c(c2)OCO3)c2ccc3c(c2)OCO3)CC1 [JZL184] (first compound 1 µM, partner dose 5 µM) | 86.6
4 | O=C(Nc1cccc(Cl)c1)Nc1ncc(CCNc2ncnc3ccsc23)s1 + C/C(O)=C(\C#N)C(=O)Nc1cc(Br)ccc1Br [LFM-A13] (first compound 0.004 µM, partner dose 10 µM) | 71.1
5 | NC(=O)c1ccc(N(C(N)=O)c2c(F)cccc2F)nc1-c1ccc(F)cc1F + O=C(Oc1ccc([N+](=O)[O-])cc1)N1CCC(C(O)(c2ccc3c(c2)OCO3)c2ccc3c(c2)OCO3)CC1 [JZL184] (first compound 2 µM, partner dose 5 µM) | 97.1
6 | C[C@]1(O)C[C@@H](c2nc(-c3ccc4ccc(-c5ccccc5)nc4c3)c3c(N)nccn32)C1 + O=C(Oc1ccc([N+](=O)[O-])cc1)N1CCC(C(O)(c2ccc3c(c2)OCO3)c2ccc3c(c2)OCO3)CC1 [JZL184] (first compound 2 µM, partner dose 5 µM) | 90.9
7 | O=C(Nc1cc(C(F)(F)F)cc(C(F)(F)F)c1)c1cc(Cl)ccc1O + O=C(Oc1ccc([N+](=O)[O-])cc1)N1CCC(C(O)(c2ccc3c(c2)OCO3)c2ccc3c(c2)OCO3)CC1 [JZL184] (first compound 0.08 µM, partner dose 5 µM) | 96.3
8 | OCc1c[nH]c2ccccc12 [Indole-3-carbinol] + O=C(Oc1ccc([N+](=O)[O-])cc1)N1CCC(C(O)(c2ccc3c(c2)OCO3)c2ccc3c(c2)OCO3)CC1 [JZL184] (first compound 4 µM, partner dose 5 µM) | 95.4
9 | N#CC[C@H](C1CCCC1)n1cc(-c2ncnc3[nH]ccc23)cn1 [ruxolitinib] + O=C(Oc1ccc([N+](=O)[O-])cc1)N1CCC(C(O)(c2ccc3c(c2)OCO3)c2ccc3c(c2)OCO3)CC1 [JZL184] (first compound 5 µM, partner dose 5 µM) | 88.7
10 | CO[C@@H]1[C@H](N(C)C(=O)c2ccccc2)C[C@H]2O[C@]1(C)n1c3ccccc3c3c4c(c5c6ccccc6n2c5c31)C(=O)NC4 [Midostaurin] + Cc1cc(SCc2sc(-c3ccc(C(F)(F)F)c(F)c3)nc2C)ccc1OCC(=O)O [GW0742] (first compound 0.4 µM, partner dose 10 µM) | 31.6
11 | CS(=O)(=O)c1ccc(C(=O)Nc2ccc(Cl)c(-c3ccccn3)c2)c(Cl)c1 [vismodegib] + C/C(O)=C(\C#N)C(=O)Nc1cc(Br)ccc1Br [LFM-A13] (first compound 5 µM, partner dose 10 µM) | 111
12 | CC1(C)CCC(c2ccc(Cl)cc2)=C(CN2CCN(c3ccc(C(=O)NS(=O)(=O)c4ccc(N[C@H](CCN5CCOCC5)CSc5ccccc5)c(S(=O)(=O)C(F)(F)F)c4)cc3)CC2)C1 + C/C(O)=C(\C#N)C(=O)Nc1cc(Br)ccc1Br [LFM-A13] (first compound 2 µM, partner dose 10 µM) | 102
13 | O=C(/C=C/c1cccnc1)NCCCCC1CCN(C(=O)c2ccccc2)CC1 + O=C(Oc1ccc([N+](=O)[O-])cc1)N1CCC(C(O)(c2ccc3c(c2)OCO3)c2ccc3c(c2)OCO3)CC1 [JZL184] (first compound 0.05 µM, partner dose 5 µM) | 103
14 | CNC(=O)c1cc(Oc2ccc(NC(=O)Nc3ccc(Cl)c(C(F)(F)F)c3)cc2)ccn1 [sorafenib] + C/C(O)=C(\C#N)C(=O)Nc1cc(Br)ccc1Br [LFM-A13] (first compound 2 µM, partner dose 10 µM) | 81.6
15 | Cc1cc(Nc2cc(N3CCN(C)CC3)nc(/C=C/c3ccccc3)n2)n[nH]1 + O=C(Oc1ccc([N+](=O)[O-])cc1)N1CCC(C(O)(c2ccc3c(c2)OCO3)c2ccc3c(c2)OCO3)CC1 [JZL184] (first compound 0.2 µM, partner dose 5 µM) | 91
16 | Nc1cccc2c1CN(C1CCC(=O)NC1=O)C2=O (stereo unspecified) [lenalidomide] + Cc1cc(SCc2sc(-c3ccc(C(F)(F)F)c(F)c3)nc2C)ccc1OCC(=O)O [GW0742] (first compound 5 µM, partner dose 10 µM) | 106

Row | SMILES | cell count [%]
17 | CS(=O)(=O)c1ccc(C(=O)Nc2ccc(Cl)c(-c3ccccn3)c2)c(Cl)c1 [vismodegib] + O=C(Oc1ccc([N+](=O)[O-])cc1)N1CCC(C(O)(c2ccc3c(c2)OCO3)c2ccc3c(c2)OCO3)CC1 [JZL184] (first compound 5 µM, partner dose 5 µM) | 86.8
18 | Cn1cnc2c(F)c(Nc3ccc(Br)cc3Cl)c(C(=O)NOCCO)cc21 [selumetinib] + O=C(Oc1ccc([N+](=O)[O-])cc1)N1CCC(C(O)(c2ccc3c(c2)OCO3)c2ccc3c(c2)OCO3)CC1 [JZL184] (first compound 0.075 µM, partner dose 5 µM) | 97.1
19 | C/C(O)=C(\C#N)C(=O)Nc1cc(Br)ccc1Br + CCCCCCCCCCCC1=C(O)C(=O)C=C(O)C1=O [Embelin] (first compound 10 µM, partner dose 6 µM) | 98.4
20 | O=C(Nc1cc(C(F)(F)F)cc(C(F)(F)F)c1)c1cc(Cl)ccc1O + C/C(O)=C(\C#N)C(=O)Nc1cc(Br)ccc1Br [LFM-A13] (first compound 0.08 µM, partner dose 10 µM) | 80.7
21 | CC1(C)NC(=O)N(c2ccc([N+](=O)[O-])c(C(F)(F)F)c2)C1=O [nilutamide] + Cc1cc(SCc2sc(-c3ccc(C(F)(F)F)c(F)c3)nc2C)ccc1OCC(=O)O [GW0742] (first compound 5 µM, partner dose 10 µM) | 103
22 | O=C(O)c1ccc(-c2c[nH]c3ncc(-c4ccccc4)cc23)cc1C1CCCC1 + C/C(O)=C(\C#N)C(=O)Nc1cc(Br)ccc1Br [LFM-A13] (first compound 0.8 µM, partner dose 10 µM) | 80.2
23 | Cc1ccc(NC(=O)c2cccc(N(C)C)c2)cc1NC(=O)c1ccc(O)cc1 + O=C(Oc1ccc([N+](=O)[O-])cc1)N1CCC(C(O)(c2ccc3c(c2)OCO3)c2ccc3c(c2)OCO3)CC1 [JZL184] (first compound 10 µM, partner dose 5 µM) | 95.5
24 | C/C(O)=C(\C#N)C(=O)Nc1cc(Br)ccc1Br + O=C1NC(=O)/C(=C/c2ccc(-c3ccc(F)cc3O)o2)S1 [AS252424] (first compound 10 µM, partner dose 5 µM) | 124
25 | O=c1[nH]nc(Sc2ncc([N+](=O)[O-])s2)n1-c1ccc2c(c1)OCCO2 + O=C(Oc1ccc([N+](=O)[O-])cc1)N1CCC(C(O)(c2ccc3c(c2)OCO3)c2ccc3c(c2)OCO3)CC1 [JZL184] (first compound 1 µM, partner dose 5 µM) | 95.7
26 | NC(=O)Nc1cc(-c2cccc(F)c2)sc1C(=O)N[C@H]1CCCNC1 + O=C(Oc1ccc([N+](=O)[O-])cc1)N1CCC(C(O)(c2ccc3c(c2)OCO3)c2ccc3c(c2)OCO3)CC1 [JZL184] (first compound 0.1 µM, partner dose 5 µM) | 96.7
27 | CCCS(=O)(=O)Nc1ccc(F)c(C(=O)c2c[nH]c3ncc(Cl)cc23)c1F + O=C(Oc1ccc([N+](=O)[O-])cc1)N1CCC(C(O)(c2ccc3c(c2)OCO3)c2ccc3c(c2)OCO3)CC1 [JZL184] (first compound 0.4 µM, partner dose 5 µM) | 95
28 | O=C(Oc1ccc([N+](=O)[O-])cc1)N1CCC(C(O)(c2ccc3c(c2)OCO3)c2ccc3c(c2)OCO3)CC1 + CC(C)CCN1c2nc(Nc3cc(F)c(O)c(F)c3)ncc2N(C)C(=O)C1C [BID1870] (first compound 5 µM, partner dose 1 µM) | 83.5
29 | COc1cc(Nc2ncc(F)c(Nc3ccc4c(n3)NC(=O)C(C)(C)O4)n2)cc(OC)c1OC [Tamatinib] + Cc1cc(SCc2sc(-c3ccc(C(F)(F)F)c(F)c3)nc2C)ccc1OCC(=O)O [GW0742] (first compound 2 µM, partner dose 10 µM) | 73.5
30 | COc1cc2c(Oc3ccc4[nH]c(C)cc4c3F)ncnc2cc1OCCCN1CCCC1 [cediranib] + O=C(Oc1ccc([N+](=O)[O-])cc1)N1CCC(C(O)(c2ccc3c(c2)OCO3)c2ccc3c(c2)OCO3)CC1 [JZL184] (first compound 2 µM, partner dose 5 µM) | 83.1
31 | COc1cc(Nc2ncc(F)c(Nc3ccc4c(n3)NC(=O)C(C)(C)O4)n2)cc(OC)c1OC [Tamatinib] + C/C(O)=C(\C#N)C(=O)Nc1cc(Br)ccc1Br [LFM-A13] (first compound 2 µM, partner dose 10 µM) | 93.7
